# Measured values from PubChem BioAssay AID2451 (National Center for Advancing Translational Sciences (NCATS), 2010).
# In all, about 290,000 compounds went through this assay and about 2,100 (0.72%) were called active. Inconclusive means that the source gave no clear call. Such entries were picked first, then a sample of the others. Calls follow the shape of the dose curve; as a rule, active = well fitted inhibition curve with a large enough effect; inconclusive = small, poorly fitted or top-dose-only effect, or effect the other way; inactive = flat fitted curve, though single readings scatter. Potencies of inconclusive entries are doubtful fits and often do not repeat.
# Target: Fructose-bisphosphate aldolase (Giardia intestinalis (strain ATCC 50803 / WB clone C6)) (UniProt A8B2U2)
# UniProt A8B2U2, sequence (A8B2U2 whole entry, looked up): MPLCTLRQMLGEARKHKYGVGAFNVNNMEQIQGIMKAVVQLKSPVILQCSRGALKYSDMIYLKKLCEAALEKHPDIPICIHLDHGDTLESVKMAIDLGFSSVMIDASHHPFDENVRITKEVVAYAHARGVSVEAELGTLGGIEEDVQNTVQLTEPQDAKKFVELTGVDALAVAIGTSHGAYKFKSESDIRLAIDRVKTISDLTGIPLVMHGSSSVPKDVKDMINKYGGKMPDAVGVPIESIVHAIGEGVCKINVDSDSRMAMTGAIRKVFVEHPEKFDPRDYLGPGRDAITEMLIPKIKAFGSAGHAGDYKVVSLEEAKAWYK
# Test: qHTS Assay for Inhibitors of Fructose-1,6-bisphosphate Aldolase from Giardia Lamblia; also: nearly all actives have a fitted effect of over 55% in size
# Conditions: purified Giardia FBPA; activity, negative = inhibition: at 59.6 µM (top of the series) unless noted
# How it was run: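 40 nM FBPA preincubated 10 min at RT with compound (up to 57.5 uM final), then substrate plus GAPDH/TPI/NAD/arsenate coupling and diaphorase/resazurin added. Fluorescence read after 20 min at RT, 525/598 nm.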
# % is scaled to controls: 0 for no effect and ±100 for the full control effect; potency is read from the fitted curve at half-maximal effect; tags tell the direction and shape of the fitted curve.
Compound,Potency,"activity, negative = inhibition"
N#Cc1c(N)sc(=S)c2c1CCCCC2,active: 10 µM,–
O=C(O)c1ccc(/C=C2\SC(=S)N(NC(=O)c3ccc(Br)cc3)C2=O)cc1,"inconclusive: 17.8 µM [inhibitor, partial curve]",–
CC(C)(C)C(=O)[C@@H]1[C@@H]2C(=O)N(C3CCCCC3)C(=O)[C@@H]2[C@H]2c3ccccc3C=CN12,"inconclusive: 17.7 µM [inhibitor, partial curve]",–
O=C(Nc1ccccc1)Oc1ccc[nH]c1=O,active: 1.41 µM,–
CCCOc1ccc(C(=O)NC(=S)N2C[C@H]3C[C@H](C2)c2cccc(=O)n2C3)cc1,"inconclusive: 10 µM [inhibitor, partial curve]",–
CC(CN1CCCCC1)c1ccccc1 (stereo not given),"inconclusive: 3.16 µM [inhibitor, full curve, poor fit]",–
COc1ccc(NC(=S)NNC(=O)OC(C)(C)C)cc1OC,"inconclusive: 15.8 µM [inhibitor, partial curve]",–
CCOC(=O)C1CCN(Cc2nc3ccc(Cl)cc3n2CCO)CC1,"inconclusive: 22.3 µM [inhibitor, partial curve]",–
Cc1ccnc(NC(=O)CCC(=O)N(CC(=O)NCc2ccc(F)cc2)Cc2ccccc2)c1,–,inactive: 17.7%
COCC(C)NCc1cc(Br)ccc1OC (stereo not given),"inconclusive: 17.7 µM [inhibitor, partial curve]",–
CCCC[C@]12Cc3cc(OC)c(OC)cc3C(O1)C1=C(O2)C(=O)c2ccccc2C1=O,"inconclusive: 3.16 µM [inhibitor, partial curve]",–
CCCCOc1ccc(C(=O)NNC(=S)NC(=O)CC)cc1,"inconclusive: 14.1 µM [activator, partial curve]",–
CC(/C=C/c1ccco1)=N\NC(=O)CNc1ccc2ccccc2c1,"inconclusive: 17.7 µM [inhibitor, single point]",–
COc1ccc(N=Cc2sc3ccccc3c2Cl)cc1,–,inactive: -0.723%
CCCCC[C@H](O)/C=C/[C@@H]1[C@@H](C/C=C\CCCC(=O)OC)[C@@H](O)C[C@H]1O,"inconclusive: 17.7 µM [activator, partial curve]",–
Cc1cccc(NC2=Nc3ccccc3N3C2=Nc2c(c(C)nn2-c2ccccc2)C3c2ccc(O)c(O)c2)c1 (stereo not given),–,inactive: -12.3%
CNC(=S)NNC(=O)c1cccc(C(F)(F)F)c1,"inconclusive: 3.16 µM [inhibitor, partial curve]",–
Cc1ccc(Cc2nc(-c3ccccn3)no2)cc1,–,inactive: 4.38%
Cc1nnn(C23CC4CC(CC(C4)C2)C3)n1,–,inactive: -6.32%
Cc1cc(O)ccc1N=Cc1c(C(F)(F)F)[nH][nH]c1=O,"inconclusive: 3.15 µM [inhibitor, partial curve]",–
